# Laboratory results: PubChem BioAssay AID2147 (National Center for Advancing Translational Sciences (NCATS), 2009)
# Hit rate of the full screen: of about 230,000 compounds, about 3,600 (1.6%) were called active. Inconclusive results, whose numbers are uncertain, are shown with a selection of clear calls. Calls follow the shape of the dose curve; as a rule, active = well fitted inhibition curve with a large enough effect (not every such curve was filed as active); inconclusive = small, poorly fitted or top-dose-only effect, or another doubt; inactive = no such curve, though single readings can be large or run the other way. A potency beside an inconclusive call is a rough fit, not a confirmed value.
# Target: Lysine-specific demethylase 4E (Homo sapiens) (UniProt B2RXH2)
# Assay: qHTS Assay for Inhibitors of Human Jumonji Domain Containing 2E (JMJD2E)
# Conditions: JMJD2E catalytic domain, FDH-coupled NADH fluorescence (FDH is formaldehyde dehydrogenase); series mostly up to 57.1 µM
# Also: nearly all actives have a fitted effect of over 50% in size.
# Potency is read from the fitted curve at half-maximal effect; tags tell the direction and shape of the fitted curve.
# UniProt B2RXH2, sequence (B2RXH2 whole entry, looked up, the tested form may be a part): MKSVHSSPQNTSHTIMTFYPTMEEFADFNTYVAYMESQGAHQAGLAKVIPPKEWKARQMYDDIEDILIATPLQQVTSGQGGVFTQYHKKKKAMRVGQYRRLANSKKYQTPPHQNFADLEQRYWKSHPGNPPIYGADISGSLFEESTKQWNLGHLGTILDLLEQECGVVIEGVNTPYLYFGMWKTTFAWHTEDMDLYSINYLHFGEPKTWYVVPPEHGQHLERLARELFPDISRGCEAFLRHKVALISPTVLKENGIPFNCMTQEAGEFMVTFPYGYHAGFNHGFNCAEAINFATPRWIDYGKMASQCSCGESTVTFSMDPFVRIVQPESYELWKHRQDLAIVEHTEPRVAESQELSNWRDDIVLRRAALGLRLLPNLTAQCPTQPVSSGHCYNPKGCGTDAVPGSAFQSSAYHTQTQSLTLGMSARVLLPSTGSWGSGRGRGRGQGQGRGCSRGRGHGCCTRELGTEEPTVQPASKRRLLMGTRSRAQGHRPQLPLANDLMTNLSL
row,Structure (SMILES),Potency
1,COc1cc(CNc2ccc3[nH]c(=O)[nH]c3c2)cc(Cl)c1OCC(=O)NC(C)(C)C,"inconclusive: 28.2 µM [inhibitor, partial curve]"
2,S=C(Nc1ccc2nccnc2c1)N1CCOCC1,"inconclusive: 25.1 µM [inhibitor, partial curve]"
3,O=C(c1cc(-c2ccccc2O)on1)N1CCc2ccccc2C1,inactive
4,Oc1ccc(-c2nc3ccccc3s2)c(O)c1,"inconclusive: 25.1 µM [inhibitor, partial curve]"
5,Cc1ccc(NC(=O)c2ccccc2[N+](=O)[O-])nc1,"inconclusive: 39.8 µM [inhibitor, single point]"
6,O=C(C1CCN(Cc2ccc(F)cc2)CC1)N1CCN(C/C=C/c2ccccc2)CC1,"inconclusive: 25.1 µM [inhibitor, single point]"
7,Cc1ccc2nc(NC(=O)COC(=O)CSc3nc(C)cc(C)n3)sc2c1,inactive
8,CC(=O)c1ccccc1OCC(O)CN1CCN(C(c2ccccc2)c2ccccc2)CC1 (stereo unspecified),inactive
9,O=C(COC(=O)C1CC(O)CN1C(=O)Oc1ccccc1)c1ccc(Br)cc1 (stereo unspecified),inactive
10,COCCCNc1nc2c(-c3cccc(C)c3)nnn2c2ccccc12,"inconclusive: 31.6 µM [inhibitor, partial curve]"
11,Cc1ccc(C)n1-c1ccc(-c2nnc3n2CCCCC3)s1,inactive
12,Cc1c(Cl)cnc(NC(=O)COC(=O)C(NC(=O)c2ccco2)C(C)C)c1Cl (stereo unspecified),inactive
13,Cc1ccc(C)c(NC(=O)CN(C)S(=O)(=O)c2cccc3cccnc23)c1,inactive
14,c1ccc2sc(NC3=NCN(Cc4ccc5c(c4)OCO5)CN3)nc2c1,"inconclusive: 39.8 µM [inhibitor, single point]"
15,Cc1nnc(NC(=O)CSCc2ccccc2)s1,inactive
16,Cc1ccsc1-c1nc(-c2ccccc2)c(-c2ccccc2)[nH]1,"inconclusive: 25.1 µM [inhibitor, partial curve]"
17,O=C(O)CCCN1C(=O)/C(=C/c2cn(-c3ccccc3)nc2-c2cccs2)SC1=S,inactive
18,COC(=O)CSc1nc2sc3c(c2c(=O)n1-c1ccccc1)CCN(C)C3,"inconclusive: 25.1 µM [inhibitor, partial curve]"
19,CCOC(=O)c1c(-c2ccc(C)o2)csc1NC(=O)CN1CCC(C(N)=O)CC1,inactive
20,COc1ccc(C(=O)C2CCCN(Cc3cn[nH]c3-c3ccccc3)C2)cc1OC (stereo unspecified),"inconclusive: 28.2 µM [inhibitor, single point]"
21,O=C(CSC1=NCCS1)Nc1ccc(S(=O)(=O)NC2CCCCC2)cc1,inactive
22,COC(=O)c1cnc(Oc2ccc(NC(=O)NC(=O)c3c(F)cccc3Cl)cc2)cc1C(F)(F)F,"inconclusive: 35.5 µM [inhibitor, partial curve]"
23,Cn1c(C(=O)NCCN2CCc3ccccc3C2)cc2c(=O)n(C)c3ccccc3c21,"inconclusive: 28.2 µM [inhibitor, partial curve]"
24,Cc1onc(NC(=O)c2ccc(Cl)cc2Cl)c1Br,inactive
25,Cc1ccc(SCCC(=O)N2CCCC2)cc1,inactive
26,Cc1cccc(C)c1NC(=O)N1C2CCCC1CC(NC(=O)C(C)(C)C)C2 (stereo unspecified),inactive

row,Structure (SMILES),Potency
1,N#Cc1c(N)nc2c(c1-c1ccncc1)CCCCC2,"inconclusive: 12.6 µM [inhibitor, partial curve]"
2,CCCSc1nc(N2CCOCC2)c2c(c1C#N)CC(C)(C)SC2,"inconclusive: 39.8 µM [inhibitor, single point]"
3,CNc1nccc(-c2ccc(Cl)cc2)c1C#N,"inconclusive: 22.4 µM [inhibitor, partial curve]"
4,O=C(O/N=C/C1=C(Cl)c2ccccc2CC1)c1ccc(F)cc1,inactive
5,Fc1ccc2nc(Nc3nc4c(s3)CCCC4)sc2c1,"inconclusive: 25.1 µM [inhibitor, partial curve]"
6,CCn1c(CSc2ncccn2)nnc1SCC(=O)N1CCCCC1,inactive
7,COc1cccc(C(=O)/C=C/c2ccc(SC)cc2)c1,inactive
8,COc1ccc2oc(=O)c(C(C)=O)cc2c1,"inconclusive: 35.5 µM [inhibitor, single point]"
9,COc1cccc(-n2nnc3c(=O)n(Cc4ccc(C)cc4)cnc32)c1,inactive
10,CCn1c(SCC(=O)Nc2ccc3c(c2)OCCO3)nnc1-c1ccccn1,inactive
11,O=C(CSc1nc(-c2ccccc2)c(-c2ccccc2)[nH]1)N1CCN(S(=O)(=O)c2ccccc2)CC1,"inconclusive: 28.2 µM [inhibitor, partial curve]"
12,O=[N+]([O-])c1cccc(/C=C/c2nc(C=Nc3ccc4ccccc4c3)c(O)o2)c1,inactive
13,CC1CCc2sc(NC(=S)NC(=O)c3ccccc3)c(C#N)c2C1 (stereo unspecified),inactive
14,Cc1cccc(S(=O)(=O)Nc2ccc(-c3cn4ccccc4n3)cc2)c1,"inconclusive: 25.1 µM [inhibitor, partial curve]"
15,Cc1cccc(NC2=Nc3ccccc3N3C2=Nc2c(c(C)nn2-c2ccccc2)C3c2ccc(O)c(O)c2)c1 (stereo unspecified),"inconclusive: 22.4 µM [inhibitor, partial curve]"
16,COC(=O)c1ccccc1NC(=O)NCc1c(C)nn(C)c1C,"inconclusive: 25.1 µM [inhibitor, partial curve]"
17,Cc1nc(Nc2ccncc2)c2oc3ccccc3c2n1,"inconclusive: 25.1 µM [inhibitor, partial curve]"
18,Cc1nc2ccccn2c1-c1csc(Nc2cccc(O)c2)n1,inactive
19,Cc1ccc(-n2c(CSc3nc(C)cc(C)n3)nnc2SCC(=O)NCc2ccco2)cc1,inactive
20,CC(/C=C/c1ccco1)=N\NC(=O)CNc1ccc2ccccc2c1,"inconclusive: 17.8 µM [inhibitor, partial curve]"
21,Cc1ccccc1NC(=O)N1CCN(S(=O)(=O)c2ccccc2)CC1,inactive
22,N#Cc1c(-c2cccs2)cc(-c2cccnc2)nc1N,"inconclusive: 28.2 µM [inhibitor, partial curve]"
23,CCN(CC)C(=O)c1c(-c2ccccc2)oc2ccc(OC)cc12,"inconclusive: 31.6 µM [inhibitor, partial curve]"
24,Cc1nc(N2CCC(C)CC2)c2c(C)c(C(=O)Nc3cc(F)ccc3C)sc2n1,"inconclusive: 31.6 µM [inhibitor, single point]"
25,CC(C)=Cc1oc2ccc([N+](=O)[O-])cc2c1N1CC(C)OC(C)C1 (stereo unspecified),inactive
26,CCCCC[C@H](O)/C=C/[C@@H]1[C@@H](C/C=C\CCCC(=O)OC)[C@@H](O)C[C@H]1O,active: 3.98 µM

row,Structure (SMILES),Potency
1,COCCCNC(=S)N/N=C/c1ccc(O)cc1,inactive
2,O=[N+]([O-])c1ccc(O)c(C=Nc2ccc3nc(-c4ccccc4)[nH]c3c2)c1,"inconclusive: 3.16 µM [inhibitor, partial curve]"
3,Cc1occc1C(=O)N=Nc1c(O)n(C)c2ccccc12,inactive
4,CC(Oc1ccc(-c2nccc(-c3ccccn3)n2)cc1)C(=O)NN (stereo unspecified),inactive
5,COc1ccc(/C=N/NC(=O)c2ccc3nc[nH]c3c2)c(OC)c1OC,"inconclusive: 28.2 µM [inhibitor, single point]"
6,CC1(C)CC(=O)c2c(O)cc(OCc3ccc(Br)cc3)cc2O1,"inconclusive: 14.1 µM [inhibitor, partial curve]"
7,O=c1[nH]cnc2c1ncn2C1OC(CO)C(O)C1O (stereo unspecified),inactive
8,Cc1ccc(-c2noc(CN3CCCCC3)n2)cc1,inactive
9,COCC(C)NCc1cc(Br)ccc1OC (stereo unspecified),"inconclusive: 39.8 µM [inhibitor, single point]"
10,Cn1c(COc2ccccc2)nnc1SCc1cc(=O)[nH]c2ccccc12,inactive
11,O=C(Nc1ccccc1-c1nnc(SCc2ccccc2)o1)c1ccccc1,"inconclusive: 35.5 µM [inhibitor, single point]"
12,Cc1ccc(-c2cc(C(=O)N3CCCc4ccccc43)c3ccccc3n2)cc1,"inconclusive: 39.8 µM [inhibitor, single point]"
13,CCn1c(O)c(/C=N/N=C2CCCCC2)c2cc(C3=NNC(=O)CC3)ccc21,"inconclusive: 28.2 µM [inhibitor, single point]"
14,COc1cccc(Nc2ccc(Nc3cccc(OC)c3)nn2)c1,inactive
15,COC(=O)c1c(S(N)(=O)=O)c2ccccc2n1C,"inconclusive: 28.2 µM [inhibitor, partial curve]"
16,COc1ccc(-c2nc(Cn3c(SCc4cccc(F)c4)nc4ccncc43)c(C)o2)cc1OC,"inconclusive: 39.8 µM [inhibitor, single point]"
17,COC(=O)c1sccc1-c1ccc(C(=O)Nc2cccc(Cl)c2)o1,"inconclusive: 31.6 µM [inhibitor, single point]"
18,Cc1cc(=O)oc2cc(OCC(=O)NCc3ccco3)ccc12,"inconclusive: 28.2 µM [inhibitor, partial curve]"
19,Cc1cccn2c(=O)c3cc(C(=O)NCc4cccnc4)c(=N)n(C(C)C)c3nc12,"inconclusive: 28.2 µM [inhibitor, partial curve]"
20,COCCn1c(Cc2ccccc2)nnc1SCC(=O)N1CCOCC1,"inconclusive: 35.5 µM [inhibitor, single point]"
21,O=C(CC1CC2CCC1C2)OCC(=O)c1c[nH]c2ccccc12 (stereo unspecified),"inconclusive: 28.2 µM [inhibitor, partial curve]"
22,CCN(CC)CCCN1C(=O)c2oc3ccccc3c(=O)c2C1c1cc(OC)ccc1OC (stereo unspecified),"inconclusive: 35.5 µM [inhibitor, single point]"
23,Cc1c(Cc2ccc3c(c2)OCO3)sc(NC(=O)c2ccc3ccccc3c2)c1C(N)=O,inactive
24,O=C(Nc1ccccc1)Oc1ccc[nH]c1=O,active: 22.4 µM
